Among all 340,000 compounds or so, about 6,900 (2%) were called active. Cut-off read from the data, not from the text of the source: active = inhibition above about 30%; inactive = below that, where a call was filed. The list shows a part of the results, in another mix than the full data. Where no call is shown, the source filed none.

The target of the experiment is D(2) dopamine receptor (Homo sapiens) (UniProt P14416). In words: HTS Assay for Allosteric Antagonists of the Human D2 Dopamine Receptor: Primary Screen for Antagonists. Note: 0% is about no effect. Conditions: HEK293 TREx D2 cells, calcium flux, dopamine EC80; at 10 µM; stronger effect = higher value. In short, it runs like this: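 Overnight-induced (tetracycline, 30 C) HEK293 T-REx cells carrying force-coupled D2 receive a no-wash calcium dye, then compound, then EC80 dopamine at 180 s; signals are read kinetically throughout.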
UniProt P14416, sequence (P14416 whole entry, looked up): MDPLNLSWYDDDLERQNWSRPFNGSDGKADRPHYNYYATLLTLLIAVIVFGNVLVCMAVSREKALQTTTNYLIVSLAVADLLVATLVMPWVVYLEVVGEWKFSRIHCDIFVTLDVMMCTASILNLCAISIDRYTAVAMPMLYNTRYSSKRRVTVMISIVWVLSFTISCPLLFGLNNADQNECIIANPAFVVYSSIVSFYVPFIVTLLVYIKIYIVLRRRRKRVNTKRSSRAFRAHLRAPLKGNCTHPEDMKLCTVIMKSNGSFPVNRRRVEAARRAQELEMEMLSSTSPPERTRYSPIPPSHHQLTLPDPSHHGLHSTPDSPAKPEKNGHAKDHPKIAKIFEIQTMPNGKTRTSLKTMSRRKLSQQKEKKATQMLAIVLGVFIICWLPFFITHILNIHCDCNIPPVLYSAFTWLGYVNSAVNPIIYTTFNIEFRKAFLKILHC
Take `CCOc1ccccc1CC1C(=O)Nc2ccc(Br)cc21` (configuration not stated): the inhibition was -10.6%.
The value for `COc1ccc(OC)c(C(C)NC(=O)Cn2c(=O)cc(C)c3c(C)nn(-c4ccc(C)cc4)c32)c1` (configuration not stated) was 0.671%; that for `COc1ccccc1-c1cc(C(=O)N2CCCCC2C)no1` (configuration not stated) was 3.82%.
The value for `CCCCC(=O)Nc1ccc2nc(SCC(=O)N3CCCC3)sc2c1` was 1.35%.
Turning to `COc1ccc(CNC(=O)c2nn(-c3ccccc3C)nc2CO)cc1`, the inhibition is -23.4%.
The result for `COc1ccc(S(=O)(=O)N(C)C)cc1NC(=O)CCCSc1ccccc1` reads active: 47.7%.
The result for `Nc1c(-c2nc(-c3cccs3)no2)nnn1-c1cccc(Cl)c1` reads 7.69%; that for `Cc1ccc(S(=O)(=O)Nc2cc(=O)[nH]c3c2CCC3)cc1`, active: 37%; that for `CCOc1ccc(NC(=O)C(NS(=O)(=O)c2ccc3c(c2)CCN3C(C)=O)C(C)C)cc1` (configuration not stated), -7.85%.
The result for `CCOc1ccccc1NC(=O)c1nnn(CC(=O)Nc2ccc(OC)c(OC)c2)c1N` reads 10.1%; that for `O=C(CSc1nc2ccccc2nc1Cc1ccc(Cl)cc1)NCCc1ccccc1`, -14.2%; that for `Cc1cc(N2CCCC2)ccc1/C=C1/C(=O)N(C)C(=S)N1C`, active: 59.5%.
In the case of `CCOC(=O)N1CCC(NC(=O)c2ccc3c(c2)N(Cc2ccc(F)cc2)C(=O)c2ccccc2S3(=O)=O)CC1`, the inhibition was -15.2%.
The value for `Cc1ccc(CNC(=O)c2ccc3c(O)c(S(=O)(=O)c4ccccc4)c(=O)[nH]c3c2)cc1` was 5.34%.
The value for `CC(C)(C)C1CCC(N2CCN(c3ccccc3)CC2)CC1` (configuration not stated) was active: 86.2%; that for `CCc1nonc1NC(=O)c1oc2ccccc2c1C` was -23.9%; that for `COc1ccc(Cc2nnnn2CC(=O)O)cc1` was active: 35.2%.
Turning to `CCOc1cc(C2c3c(-c4ccc(Br)cc4)n[nH]c3C(=O)N2c2ccc(Cl)cc2)ccc1O` (configuration not stated), the inhibition was determined as 7.31%.
The value for `CCCCC(CC)CNC(=O)c1ccc2c(=O)n(Cc3ccc(OC)cc3)c(=O)[nH]c2c1` (configuration not stated) was -7.3%.
The result for `Cn1nc(C(=O)NCc2ccc(Cl)cc2)c2c1-c1ccccc1SC2` reads 16.7%; that for `CC(=O)Nc1ccc(N(C(=O)c2ccco2)C(C(=O)NC2CCCCC2)c2ccccc2)cc1` (configuration not stated), active: 36.7%.
The value for `Cc1ccc(N(Cc2cccs2)C(=O)c2ccc(Br)o2)cc1` was -6.6%.
Consider `Cc1cc(=O)n2nc(N3CCC(C(=O)Nc4ccc(C)c(Cl)c4)CC3)sc2n1`, for which the inhibition was found to be 2.36%.
The value for `COc1ccc(CNC(=O)Cc2c(C)c3c(cc(C)c4c(C)c(C)oc43)oc2=O)cc1` was -14.1%; that for `CSc1ccc2c(c1)C(N1CCN(C)CC1)Cc1ccccc1S2` (configuration not stated) was active: 81.3%.
As to `COc1ccc(CCNC(=O)C2CCCN(c3nc4c(C)cc(C)cc4s3)C2)cc1OC` (configuration not stated), the inhibition was -9.46%.
The value for `Cc1nc(-c2ccc(C)c(S(=O)(=O)N3CCC(C(=O)NCc4ccc(Cl)cc4)CC3)c2)no1` was -10.1%; that for `CCOC(=O)c1c(NC(=O)c2cc(C(C)C)on2)sc(C)c1C` was -13.6%; that for `Cc1cccc(CSc2nc3c(c(=O)[nH]2)C(c2cccc(O)c2)CC(=O)N3)c1` (configuration not stated) was 9.56%.
The value for `Cc1ccc(S(=O)(=O)C(CNC(=O)c2ccccc2F)c2cccs2)cc1` (configuration not stated) was 13.4%; that for `Cc1cccc(CN2CCN(CC(=O)NCc3ccc(Cl)cc3)C2=O)c1` was 15.6%; that for `COc1ccc(C2=C(C)C(=O)N(Cc3ccc(C(=O)NCc4ccc(C)cc4)cc3)S2(=O)=O)cc1` was -14.1%.
Regarding `COc1ccc(CNC(=O)CN(c2cc(C)cc(C)c2)S(=O)(=O)c2c(C)[nH]c(=O)[nH]c2=O)cc1`, the inhibition came to 7.76%.
The value for `O=C(CSc1ncccn1)N/N=C/c1cccc(OC2CSC2)c1` was active: 36%; that for `CCOc1cc(-c2nc(-c3ccc(Br)cc3)no2)cc(OCC)c1OCC` was -14.3%; that for `O=C(COc1ccccc1)N(Cc1cccnc1)c1nc2ccc(F)cc2s1` was 1.3%.
For `COc1ccc(-c2cc(C(F)(F)F)n3nc(C(=O)NCC45CC6CC(CC(C6)C4)C5)cc3n2)cc1`, the inhibition stood at 16.1%.
The value for `O=C(CN1C(=O)COc2ccc(S(=O)(=O)N3CCOCC3)cc21)N1CCN(c2ccccc2)CC1` was 10.9%; that for `COCCCNC(=O)c1ccc2c(=O)n(Cc3ccc(OC)cc3)c(=O)[nH]c2c1` was 3.07%; that for `Cc1oc2ncn(C)c(=O)c2c1C(=O)NCCCN1CCCC(C)C1` (configuration not stated) was -1.61%.
The value for `O=C(Nc1ccc(Br)cc1F)c1ncoc1-c1ccco1` was -1.04%; that for `O=S(=O)(c1cc(Cl)ccc1Cl)N1CCc2ccccc21` was active: 37.4%; that for `COc1ccc(-n2ncc(C(=O)N3CCc4ccccc4C3)c2C2CCN(C(=O)OC(C)(C)C)CC2)cc1` was 2.14%.
As to `O=C(CCN1CCc2ccccc2C1)Nc1ccc2c(c1)OCO2`, the inhibition is active: 58.5%.
As for `Cc1cc(C)cc(NS(=O)(=O)c2ccc3c(c2)CCCN3C(=O)C2CCC2)c1`, the inhibition was -20.3%.
The result for `Cc1cc(C)c(NC(=O)C2CCN(c3nnc(C)c4c(C)n(-c5ccccc5)nc34)CC2)c(C)c1` reads 3.77%.
For the compound `COc1ccc(CNC(=O)C(C)n2ccc3cc(S(=O)(=O)N4CCCC4)ccc32)cc1OC` (configuration not stated), the inhibition came to 3.12%.
The value for `COc1ccccc1NC(=O)C1=C(C)Nc2nc(SCc3ccccc3C)nn2C1CC(C)C` (configuration not stated) was -1.27%; that for `O=C(CSc1nccn1Cc1ccc(Cl)cc1)Nc1ccc2c(c1)OCCO2` was 1.9%.
The result for `COc1cccc(C(c2c(O)cc(C)n(Cc3ccco3)c2=O)N2CCN(c3ccccc3)CC2)c1` (configuration not stated) reads -15.9%.
The value for `COc1cc(Cl)c(C)cc1NC(=O)Cn1ncc2c([nH]c3ccccc32)c1=O` was -2.32%.
Regarding `CCc1ccccc1NC(=O)c1ccc2c(c1)N(Cc1cc(C)ccc1C)C(=O)c1ccccc1S2(=O)=O`, the inhibition stood at 10.3%.
As for `COC(=O)c1cc2sccc2n1Cc1nc(-c2ccc(Cl)cc2)oc1C`, the inhibition is -9.05%.
The result for `Cc1cc(C)n(C(C)CC(=O)NCc2ccc(N(C)C)cc2)n1` (configuration not stated) reads 8.63%.
As for `CCOC(=O)c1[nH]ncc1CN1CCCC(C(=O)c2cc(Cl)ccc2OC)C1` (configuration not stated), the inhibition was active: 72.9%.
The value for `COc1ccc(OC)c(NC(=O)CSc2nc3ccccc3nc2N2CCCCC2)c1` was 4.07%.
The result for `COc1ccc(NC(=O)COc2ccc(S(=O)(=O)NC3CCCCC3)cc2)cc1OC` reads -10.1%.
For the compound `O=C(Nc1ccccc1)c1ccc(Br)c(S(=O)(=O)N2CCCCC2)c1`, the inhibition is -1.28%.
The value for `COc1ccc(NC(=O)C2CCC(CNS(=O)(=O)c3ccc(Br)s3)CC2)cc1OC` (configuration not stated) was -0.785%; that for `CCCC(=O)OCc1cnc(C)c2oc(=O)c(C(=O)Nc3ccccc3)cc12` was -0.276%; that for `CC(NC(=O)CCNS(=O)(=O)c1cccc2nsnc12)c1ccccc1` (configuration not stated) was 2.29%.
The result for `Cc1ccc2c(=O)cc(CSCC(=O)Nc3nnc(C)s3)[nH]c2c1` reads 21%.

Values taken from PubChem BioAssay AID485344 (National Center for Advancing Translational Sciences (NCATS), 2010).
